Source: the supplement of paper PMC3334620
Over roughly 33,000 sequences, “E-score (-0.5 to 0.5)” has its median near -0.043; the highest 2% begin near 0.37. This is one part of the list.

Target: T1, Upc2 (UniProt Q12151)
T1 sequence: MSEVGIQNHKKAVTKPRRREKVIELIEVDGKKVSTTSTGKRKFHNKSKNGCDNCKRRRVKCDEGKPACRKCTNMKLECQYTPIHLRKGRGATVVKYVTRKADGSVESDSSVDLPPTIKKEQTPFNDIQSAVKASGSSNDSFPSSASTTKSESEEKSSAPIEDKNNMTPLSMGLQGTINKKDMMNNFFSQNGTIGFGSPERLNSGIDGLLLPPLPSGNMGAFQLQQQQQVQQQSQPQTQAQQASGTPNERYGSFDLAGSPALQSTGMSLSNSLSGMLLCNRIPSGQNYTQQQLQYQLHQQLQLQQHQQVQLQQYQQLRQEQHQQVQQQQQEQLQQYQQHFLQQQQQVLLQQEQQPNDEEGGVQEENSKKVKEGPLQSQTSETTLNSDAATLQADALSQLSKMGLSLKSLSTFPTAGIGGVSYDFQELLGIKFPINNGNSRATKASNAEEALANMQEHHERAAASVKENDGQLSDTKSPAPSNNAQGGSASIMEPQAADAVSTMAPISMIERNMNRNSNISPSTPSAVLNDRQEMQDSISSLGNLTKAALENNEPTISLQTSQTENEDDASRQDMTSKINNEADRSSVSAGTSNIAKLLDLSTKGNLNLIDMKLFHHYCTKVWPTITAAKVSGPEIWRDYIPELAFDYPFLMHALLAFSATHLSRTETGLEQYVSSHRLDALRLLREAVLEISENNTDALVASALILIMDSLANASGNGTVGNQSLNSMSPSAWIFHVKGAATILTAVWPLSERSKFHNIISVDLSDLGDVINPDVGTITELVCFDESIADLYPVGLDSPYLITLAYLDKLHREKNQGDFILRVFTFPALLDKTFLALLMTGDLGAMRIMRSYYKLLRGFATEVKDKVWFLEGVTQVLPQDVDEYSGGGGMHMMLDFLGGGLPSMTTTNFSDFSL
Assay: PBM E-score (8-mer binding enrichment) (E-score (-0.5 to 0.5)); higher = stronger / more preferred TF binding; most listed sequences are background and not binding sites
Details: protein concentration: 200 nM; construct: GST-full length
Method in brief: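 For each ungapped eight-base word taken together with its reverse complement, the Universal PBM Analysis Suite assigned an E-score. Binding data came from GST-tagged yeast transcription factors, applied at about 100-200 nM, on universal all-10-mer Agilent arrays made double-stranded by primer extension. Fluorescent anti-GST marked bound protein, and scans were normalised with masliner.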

| Sequence | PBM E-score |
| --- | --- |
| CGGAGTCC | -0.137 |
| CGCGGCTA | 0.13 |
| ACCACCTA | -0.194 |
| CACTGAAC | 0.114 |
| ACGCGGTC | 0.0726 |
| ATCCCTAG | -0.0909 |
| CTGACGCC | -0.0727 |
| CTGCCCCC | -0.228 |
| AAAGGTAG | -0.16 |
| CCCACGAG | -0.341 |
| ACGTGGAG | 0.104 |
| AGACTGTC | -0.0995 |
| CCGGCTAC | -0.0283 |
| ATGCCCTA | -0.137 |
| CCTCTTCG | 0.0358 |
| CTTGCCTC | 0.0793 |
| GCGATGGA | -0.0225 |
| AGTATATA | 0.282 |
| CGCCCCAC | -0.0867 |
| AGCTTGCC | -0.0292 |
| AGGACTCC | -0.182 |
| AACGAGCC | 0.449 |

| Sequence | PBM E-score |
| --- | --- |
| CCACTAGA | -0.189 |
| CATAAATA | -0.0593 |
| CGGTGTAC | 0.277 |
| CTGAAAAC | 0.0321 |
| ATACTGAC | 0.14 |
| TCGAACGA | 0.368 |
| GAGGTATC | -0.127 |
| CCAAATAG | -0.0106 |
| ACTCCTTC | -0.235 |
| CGGCTTTC | -0.0637 |
| AGCTAGAG | -0.07 |
| ACCCCTCT | -0.179 |
| GTTAGGCA | -0.13 |
| CGCAATCC | 0.0609 |
| AATTACTC | -0.064 |
| ACTGTCAG | -0.0612 |
| ACCGTGTG | -0.118 |
| GAGGTCTA | 0.129 |
| AACATCGT | 0.198 |
| CGTTGGCA | -0.019 |
| CGGGTCGA | 0.0218 |
| ACATGTGC | 0.0271 |

| Sequence | PBM E-score |
| --- | --- |
| ACGGATTG | 0.146 |
| GATGCTGC | -0.157 |
| AAAGGGTG | -0.342 |
| CCTACCGA | -0.0373 |
| GACCTCTC | 0.18 |
| CTCGGAAG | -0.0694 |
| AACTACCG | -0.0994 |
| CTAGAGAC | -0.247 |
| GGGGTTGA | -0.294 |
| GATAAACC | 0.0863 |
| ACGGTACA | 0.178 |
| AATGGTCG | 0.153 |
| AAGGGGGT | -0.384 |
| CAGTCCTC | -0.348 |
| ATCCCGTC | -0.104 |
| CAAGCCGC | -0.158 |
| GCTTTGTA | 0.0521 |
| ATTGCATG | -0.00567 |
| CCCTGCCC | -0.138 |
| AGTAAATG | -0.0961 |
| AACGATCC | 0.345 |
| ACTTTGAG | -0.174 |

| Sequence | PBM E-score |
| --- | --- |
| GACGGCCA | -0.252 |
| ATAAAGAG | -0.00074 |
| AAACGTGT | 0.216 |
| CACTGATG | -0.204 |
| GCGCCGTA | 0.358 |
| TCATGAGA | -0.0162 |
| CAAAGGAG | -0.206 |
| CATGACGA | -0.00458 |
| AGTAGCAG | 0.0251 |
| ATCGCGAG | 0.175 |
| GAAGTTAC | 0.0138 |
| GATTGTAC | 0.103 |
| CCAATACA | -0.214 |
| ACTTATAA | 0.0838 |
| TCTGAGAA | -0.0854 |
| ATAAGTCA | -0.064 |
| CAAGCCCG | -0.0532 |
| ACCTGTGA | -0.0274 |
| AGGTGTGG | -0.0984 |
| GTCTAGGA | -0.181 |
